Out of some 350,000 compounds screened, about 260 (0.074%) were called active. Inconclusive means that the source gave no clear call. Such entries were picked first, then a sample of the others. Calls follow the shape of the dose curve; as a rule, active = well fitted inhibition curve with a large enough effect; inconclusive = small, poorly fitted or top-dose-only effect; inactive = no such curve, though single readings can be large or run the other way. Potencies of inconclusive entries are doubtful fits and often do not repeat.
molecular target: Ferritin light chain (Equus caballus) (UniProt P02791); test: qHTS Assay for Identification of Novel General Anesthetics; conditions: apoferritin/1-aminoanthracene competitive binding, fluorescence; activity change, negative = displacement: at 77.5 µM (top of the series); also: nearly all actives have a fitted effect of over 20% in size
Sequence of UniProt P02791 (P02791 whole entry, looked up): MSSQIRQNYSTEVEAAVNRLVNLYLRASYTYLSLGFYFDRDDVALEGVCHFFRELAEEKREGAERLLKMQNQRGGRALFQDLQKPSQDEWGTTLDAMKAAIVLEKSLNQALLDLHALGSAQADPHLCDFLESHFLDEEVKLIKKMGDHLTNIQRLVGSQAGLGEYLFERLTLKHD
Method in brief: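 Horse-spleen apoferritin (10 uM) in 50% saturated 1-aminoanthracene in PBS was incubated 10 min at room temperature with compound. Fluorescence (ex 380, em 535 nm) was normalized to free and bound 1-AMA, with concentration-response fitted by a four-parameter Hill equation.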
% is scaled to controls: 0 for no effect and ±100 for the full control effect; potency is read from the fitted curve at half-maximal effect; tags tell the direction and shape of the fitted curve.

Activity change, negative = displacement, inactive:
O=C(CSc1nc2c([nH]c3ccccc32)c(=O)n1-c1ccc(Cl)cc1)N1CCCC1 -9.23%
Cc1ccc(S(=O)(=O)N(C)C)cc1NC(=S)NC(C)CCCC(C)C (stereo not drawn) -7.47%
CCOC(=O)c1c(C)[nH]c(CCC(=O)Nc2ccc(Cl)cc2C)c1C 0.695%
C=CCSc1nn2c(=O)c3ccccc3nc2s1 -23.2%
Cc1cccn(Cc2c(F)cccc2Cl)c1=O 4.41%
c1ccc(Nc2nc(-c3ccncc3)cs2)cc1 -5.57%
O=[N+]([O-])c1ccc2nc(CN3CCCCC3)[nH]c2c1 -8.78%
Cc1cc(C)c2c(n1)sc1c(O)cc(=O)[nH]c12 -2.49%
O=C(Nc1ccc2nc(SCC(=O)N3CCCc4ccccc43)sc2c1)c1ccccc1 4.01%

Potency, inconclusive:
CCn1c(SCC(=O)c2ccccc2)nc2ccccc2c1=O 35.5 µM [inhibitor, partial curve]
CC(=O)Nc1ccc(OCc2cccc3ccccc23)cc1 39.8 µM [inhibitor, partial curve]
CC(=O)Nc1ccc(SCC(=O)c2ccc(Br)s2)cc1 31.6 µM [inhibitor, partial curve]
CCCCCCSc1nsc(NC(C)=O)n1 5.01 µM [inhibitor, full curve]
CCc1ccc(-c2cc(C(=O)N3N=C(C(F)F)CC3(O)C(F)F)c3ccccc3n2)cc1 (stereo not drawn) 25.1 µM [inhibitor, partial curve]
CC(C)=CCC/C(C)=C/CC/C(C)=C/CSCC(=O)O 28.2 µM [inhibitor, partial curve]
Cc1ccc(/C=C/C(=O)N2CCc3ccccc3C2)cc1 22.4 µM [inhibitor, partial curve]
CC(C)=CC(=O)OCC(=O)Nc1ccccc1Cl 50.1 µM [inhibitor, single point]
Cc1ccc(-c2nc3cccnc3o2)cc1NC(=O)COc1ccc(C(C)(C)C)cc1 22.4 µM [inhibitor, partial curve]
CCOc1ccc(N(C)Cc2cc(=O)oc3ccc(OC)cc23)cc1 25.1 µM [inhibitor, partial curve]
COC(=O)C(O)(CC(=O)Nc1ccc(C)c(F)c1)C(F)(F)F (stereo not drawn) 39.8 µM [inhibitor, single point]
Cc1noc(C(=O)N2CC3(C)CC2CC(C)(C)C3)c1Cl (stereo not drawn) 28.2 µM [inhibitor, partial curve]
Cc1cc(C)n(C(=O)Cn2nc([N+](=O)[O-])c(Br)c2C)n1 25.1 µM [inhibitor, partial curve]
COc1ccc(CNc2ccc(N3CCOCC3)cc2)cc1 50.1 µM [inhibitor, single point]
CCC(C)c1ccc(NC(=O)c2c([N+](=O)[O-])cnn2CC)cc1 (stereo not drawn) 35.5 µM [inhibitor, partial curve]
COC(=O)C1=C(C)N(Cc2ccccc2)C(=NCc2cc(OC)c(OC)c(OC)c2)N[C@H]1c1cccc(F)c1 12.6 µM [inhibitor, partial curve]
Cc1c(Br)c([N+](=O)[O-])nn1CC(=O)Nc1cccc2nonc12 10 µM [inhibitor, partial curve]
O=C(COC(=O)CC1CC2CCC1C2)NC(=O)NC1CCCC1 (stereo not drawn) 14.1 µM [inhibitor, partial curve]
Cc1nc2cc(NC(=O)COc3ccc(C#N)cc3)ccc2n1-c1ccccc1 28.2 µM [inhibitor, partial curve]
CCOC(=O)c1sc(NC(=O)Nc2ccccc2)cc1C 44.7 µM [inhibitor, single point]
COc1cccc(Cn2cccc(NC(=O)Nc3ccccc3C)c2=O)c1 7.08 µM [inhibitor, partial curve]
Fc1ccc(-c2noc3ncnc(NCC4CCN(Cc5ccc(Cl)cc5)CC4)c23)cc1 5.62 µM [inhibitor, partial curve]
COc1ccc(CNC(=O)C23CN(Cc4ccccc4)CC2C(c2ccc([N+](=O)[O-])cc2)=NO3)cc1 (stereo not drawn) 7.94 µM [inhibitor, partial curve]
Cc1ccc(-c2csc(N(CCO)CCCn3c(C(F)(F)F)nc4cc(C(F)(F)F)ccc43)n2)cc1 4.47 µM [inhibitor, full curve, poor fit]
COC(=O)CSc1nnc(-c2ccc(S(=O)(=O)NCc3ccccc3Cl)cc2)o1 31.6 µM [inhibitor, partial curve]
CCC(C)c1ccc(NC(=O)NCc2cccnc2)cc1 (stereo not drawn) 22.4 µM [inhibitor, partial curve]
Cc1ccc(Cn2ccc(NC(=O)c3cc(C(C)C)on3)n2)cc1 3.98 µM [inhibitor, full curve]
Cc1cccc(NCc2ccccc2)c1 35.5 µM [inhibitor, partial curve]
COc1ccc(NC(=O)Nc2cc(C(C)(C)C)on2)cc1OC 22.4 µM [inhibitor, partial curve]
C/C(=N\Nc1nc(C(C)(C)C)cs1)c1ccc(O)cc1 25.1 µM [inhibitor, single point]
Cc1ccc(Oc2ccccc2NC(=O)CN2C(=O)NC3(CCCC3)C2=O)cc1 44.7 µM [inhibitor, single point]
Cc1cc(C)nc(NN2C(=O)/C(=C/c3ccc(O)cc3)SC2=S)n1 31.6 µM [inhibitor, partial curve]
CC(C)(C)C(=O)COC(=O)c1ccc(N)c([N+](=O)[O-])c1 25.1 µM [inhibitor, partial curve]
COC(=O)c1oc2ccc(Br)cc2c1-n1cccc1 39.8 µM [inhibitor, partial curve]

Source: PubChem BioAssay AID485281 (National Center for Advancing Translational Sciences (NCATS), 2010)
